# Measurements from PubChem BioAssay AID686979 (National Center for Advancing Translational Sciences (NCATS), 2013).
# Among all 420,000 compounds or so, about 50,000 (12%) were called active. The inconclusive results got no clear call from the source; some entries with a clear call stand among them for comparison. Calls come from the whole dose curve; as a rule, active = well fitted inhibition curve with a large enough effect; inconclusive = small, poorly fitted or top-dose-only effect; inactive = flat fitted curve, though single readings scatter. Potencies of inconclusive entries are left out as doubtful fits.
# Assay: qHTS for Inhibitors of human tyrosyl-DNA phosphodiesterase 1 (TDP1): qHTS in cells in presence of CPT; note: nearly all actives have a fitted effect of over 55% in size
# Conditions: chicken DT40 Tdp1-/-;hTDP1 cells + 20 nM CPT, ATP luminescence, 48 h; activity change, negative = growth inhibition: at 46.2 µM (top of the series) unless noted
# Summary of the method: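 Chicken DT40 Tdp1-/- cells complemented with human TDP1, 400 cells/well, exposed to compounds plus 20 nM camptothecin for at least 48 h at 37 C; viability read as ATP content by CellTiter-Glo luminescence.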
# % is set by controls: 0 for no effect and ±100 for the full control effect; potency is the fitted concentration of half-maximal effect; tags give direction and shape of the fitted curve.
SMILES,Potency,"activity change, negative = growth inhibition"
CCCc1nc2ccccc2c(=O)n1CC(=O)c1ccccc1,"inconclusive [inhibitor, single point]",
CCOc1ccc(S(=O)(=O)N2CCN(CN3C(=O)CC4(CCCC4)C3=O)CC2)cc1,,inactive: -20.6%
CC(C)NC(=O)CSc1nc(Cc2ccccc2)nc2ccccc12,"inconclusive [inhibitor, single point]",
COc1ccc(CC(=O)Nc2cccnc2)cc1,,inactive: 0.212%
O=C(CSc1nc(-c2ccco2)nc2cc(=O)[nH]n12)Nc1ccccc1F,,inactive: -0.48%
COc1ccccc1N1CCNC(C)C1=O (stereo unspecified),"inconclusive [inhibitor, single point]",
CC(C)CN(C(=O)COC(=O)c1ccc(Br)cc1)c1c(N)n(Cc2ccccc2)c(=O)[nH]c1=O,"inconclusive [inhibitor, single point]",
COc1ccc(S(=O)(=O)N2CCCC(C(=O)NCc3ccncc3)C2)cc1 (stereo unspecified),"inconclusive [inhibitor, full curve]",
CCCCn1c(SCC(=O)c2ccccc2)nc2c1c(=O)[nH]c(=O)n2C,"inconclusive [inhibitor, single point]",
COc1ccc(-c2nn(-c3ccccc3)cc2C=O)cc1[N+](=O)[O-],,inactive: -14.4%
COC(=O)c1ccc(CSc2nnc(-c3ccncc3)o2)cc1,"inconclusive [inhibitor, full curve, poor fit]",
COc1cccc(C(=O)Nc2ccccc2-c2nnc(-c3ccc(C(C)(C)C)cc3)o2)c1,"inconclusive [inhibitor, single point]",
Cc1ccc2c(c1)C(O)(CC(=O)c1cccc(-n3cccc3)c1)C(=O)N2 (stereo unspecified),,inactive: 8.92%
CCCCN(CC)CCNC(=O)c1cc2c(=O)n(C)c3ccccc3c2s1,"inconclusive [inhibitor, single point]",
CCO[C@@H]1OC(C(=O)N2CCCCCCC2)=C[C@H](c2ccc3c(c2)OCO3)[C@H]1CCCO,"inconclusive [inhibitor, partial curve]",
Cc1cccc(N2CCN(C(=O)C3CCN(S(=O)(=O)c4cccc5nsnc45)CC3)CC2C)c1 (stereo unspecified),active: 23.1 µM,
Oc1c(N=NC(=S)Nc2ccccc2F)c2ccccc2n1Cc1ccccc1Cl,active: 6.51 µM,
O=C1CC(c2ccccc2)C(=O)N1c1cccc(O)c1 (stereo unspecified),,inactive: -14.8%
Cc1ccc(-n2nnnc2-c2cnn(-c3cccc(F)c3)c2C(F)(F)F)cc1,"inconclusive [inhibitor, partial curve, poor fit]",
CN(C)c1nccc(N(Cc2ccccc2)Cc2ccccc2)c1C#N,active: 18.4 µM,
CC(CNC(=O)c1cc(Cl)ccc1[N+](=O)[O-])NC(=O)c1cc(Cl)ccc1[N+](=O)[O-] (stereo unspecified),,inactive: -11.1%
CCOc1ccc(-c2cc(CCCC(=O)NCCc3ccc(OCC)c(OCC)c3)no2)cc1,"inconclusive [inhibitor, partial curve]",
O=C1C2C3C=CC(CC3)C2C(=O)N1c1ccccc1F (stereo unspecified),,inactive: -29%
Cc1ccc(S(=O)(=O)Nc2ccc(NC(=O)c3c(F)c(F)c(F)c(F)c3F)cc2)cc1,"inconclusive [inhibitor, single point]",

SMILES,Potency,"activity change, negative = growth inhibition"
CCSc1ccc(-c2cc(NC=O)c3ncc(-c4cccc(C(=O)NCCN(C)C)c4)n3c2)cc1,active: 4.61 µM,
COc1cc(NC(=O)C2CC(c3ccccc3Cl)=NO2)cc(OC)c1OC (stereo unspecified),active: 16.4 µM,
Cc1ccc(-n2c(SCC(=O)N3CCCCC3)nc(O)c(Cc3ccccc3)c2=O)cc1,"inconclusive [inhibitor, partial curve]",
COc1ccc(Nc2nc(NCc3ccco3)nc(N/N=C/c3ccccc3F)n2)cc1,active: 18.4 µM,
CC(=O)/C(=C\Nc1ccc(OCc2ccccc2)cc1)c1ccccc1,active: 18.4 µM,
COc1ccc(NC(=O)c2sc3nc4c(cc3c2N)CCCCCC4)cc1Cl,"inconclusive [inhibitor, single point]",
CCOC(=O)c1cccc(NC(=O)N2CC(CC)Oc3ccccc32)c1 (stereo unspecified),"inconclusive [inhibitor, single point]",
COc1ccc(C(C#N)CC(=O)c2ccc3c(c2)OCO3)cc1OC (stereo unspecified),,inactive: -18.7%
CC/C(C)=N\N=C\c1c(O)n(CC)c2cc(C3=NNC(=O)CC3)ccc12,active: 10.3 µM,
O=c1c([N+](=O)[O-])c(N2CCOCC2)c2ccccc2n1-c1ccccc1,"inconclusive [inhibitor, single point]",
COc1cccc(N(C)C(=S)Oc2ccc3c(c2)CCCC3)n1,"inconclusive [inhibitor, single point]",
CC1(C)CC(N2CCCC2)=CC(=[N+]2CCCC2)C1,active: 0.411 µM,
O=C(Cc1sc(-c2ccccc2Cl)nc1-c1ccccc1)Nc1ccc(F)cc1,"inconclusive [inhibitor, partial curve]",
O=C(c1ccc(-n2c(SCc3cc(F)ccc3F)nc3ccccc3c2=O)cc1)N1CCOCC1,active: 11.6 µM,
O=C(NCCc1ccc(Cl)cc1Cl)c1cncc(Br)c1,,inactive: 3.03%
CC(=O)c1ccc(N2CCN(C(=O)CCC(=O)c3cccs3)CC2)cc1,,inactive: -18.6%
NC(=O)c1ccc(-c2ccc(N3C(c4ccsc4)=Cc4ccc(F)cc4C3CC(=O)c3ccco3)cc2)cc1 (stereo unspecified),"inconclusive [inhibitor, single point]",
O=C(C[C@H]1C[C@@H]2c3cc(NC(=O)c4ccc5c(c4)OCO5)ccc3O[C@@H]2[C@H](CO)O1)NCc1cc(F)ccc1F,"inconclusive [inhibitor, single point]",
CCn1c(Oc2ccc(F)cc2)nc2c1c(=O)n(C)c(=O)n2C,"inconclusive [inhibitor, single point]",
CC[C@]12c3[nH]c4ccc(Cl)cc4c3CCN1C(=O)[C@@H](CC(=O)NCC13CC4CC(CC(C4)C1)C3)C[C@@H]2C(=O)N1CCN(C(=O)C2CC2)CC1,active: 8.2 µM,
COC(=O)C1=C(C)NC(=O)C1(NS(=O)(=O)c1ccc(NC(C)=O)cc1)C(F)(F)F (stereo unspecified),,inactive: -2.2%
CC(C)C(=O)NNC(=O)c1ccccn1,,inconclusive: -31.9% [inhibitor]
Cc1ccc(C(=O)N2CCN(c3ccc(C(F)(F)F)cn3)CC2)o1,"inconclusive [inhibitor, partial curve]",
OC(CBr)C[n+]1cc(Br)cc2ccccc21 (stereo unspecified),active: 7.08 µM,

SMILES,Potency,"activity change, negative = growth inhibition"
CCCCCCC(=O)N1CCC(c2nc3c(nnn3Cc3ccccc3Cl)c(=O)[nH]2)CC1,active: 18.4 µM,
CCN(CCC(=O)Nc1ccc(Br)c(C)c1)Cc1ccccc1,"inconclusive [inhibitor, single point]",
CN(C)CCCNc1nc2cc(-c3ccsc3)sc2c(=O)n1C,"inconclusive [inhibitor, single point]",
C=CCOC(=O)C1=C[C@H](c2ccc(Br)cc2)C[C@H](OCc2ccc(CO)cc2)O1,,inactive: -26.3%
Cc1cccc(-n2ncc(C(=O)NCc3ccco3)c2C2CCN(C(=O)OC(C)(C)C)CC2)c1,active: 16.4 µM,
CCOC(=O)c1ccc(N2CN(CCc3ccccc3)CNC2=S)cc1,active: 16.4 µM,
CCOC(=O)c1c(C)[nH]c(C(=O)C(C)Cl)c1C (stereo unspecified),"inconclusive [inhibitor, single point]",
Fc1cccc(CCN2C(=S)NC[C@@H]2CC2CCCCC2)c1,"inconclusive [inhibitor, single point]",
COc1cc(/C=C/C(=O)OCC(=O)N(CC(C)C)c2c(N)n(Cc3ccccc3)c(=O)[nH]c2=O)ccc1O,"inconclusive [inhibitor, single point]",
NS(=O)(=O)c1ccc(NC(=O)CN2CCN(S(=O)(=O)/C=C/c3ccccc3)CC2)cc1,,inactive: -3.8%
Cc1ccc(C)c(N(C)C(=O)COc2cc(=O)n(C)c3ccccc23)c1,"inconclusive [inhibitor, single point]",
Cc1cccc(CNC(=O)CCCN2C(=O)COc3ccc(C)cc32)c1,active: 14.6 µM,
CCOc1ccc(S(=O)(=O)NCCC(=O)NCC(c2ccccc2OC)N2CCCC2)cc1 (stereo unspecified),,inactive: -26.4%
Cc1ccc(CNCc2cn[nH]c2-c2ccc(C)cc2)cc1,active: 7.94 µM,
CC(=O)c1ccc([N+](=O)[O-])cc1,,inactive: -6.36%
Cc1ccc2c(c1)cc(C)c1nnc(SCC(=O)NCc3ccco3)n12,"inconclusive [inhibitor, single point]",
O=C(Nc1cccc(S(=O)(=O)N2CCOCC2)c1)C(c1ccccc1)N1CCCCC1 (stereo unspecified),"inconclusive [inhibitor, single point]",
Cc1ccc(S(=O)(=O)CCc2nc3ccccc3n2CCC#N)cc1,"inconclusive [inhibitor, single point]",
CCc1nn(CC(=O)NCCN(CC)CC)c(=O)c2cc3occc3n12,"inconclusive [inhibitor, single point]",
CCNC(=O)C1(C)CCN(Cc2ccc(-c3ccccc3)cc2)C1 (stereo unspecified),"inconclusive [inhibitor, single point]",
COc1ccc(NC(=O)C(C2CC2)n2c(=O)c(-c3ccco3)nc3ccccc32)cc1 (stereo unspecified),"inconclusive [inhibitor, single point]",
O=C(CN1c2cccc3cccc(c23)S1(=O)=O)NCc1ccccc1Cl,"inconclusive [inhibitor, single point]",
Cc1cc(C(=O)CSc2cccc[n+]2[O-])c(C)n1-c1ccc(OC(F)F)cc1,active: 20.6 µM,
